Over roughly 33,000 sequences, “E-score (-0.5 to 0.5)” has its median near -0.016; the highest 2% begin near 0.31. This is one part of the list.
Biological target: Cst6 (UniProt P40535)
Assay: PBM E-score (8-mer binding enrichment) (E-score (-0.5 to 0.5)); higher = stronger / more preferred TF binding; most listed sequences are background and not binding sites
Conditions: protein concentration: 200 nM; construct: GST-DNA-binding domain
Summary of the method: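 Using PURExpress in vitro transcription/translation, GST-tagged yeast transcription factors were made in full-length or DNA-binding-domain form. These were applied at about 100-200 nM to double-stranded universal all-10-mer Agilent arrays, and bound protein was detected with fluorescent anti-GST. Scans were normalised with masliner before the Universal PBM Analysis Suite assigned E-scores to ungapped eight-base words pooled with their reverse complements.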

Sequence	PBM E-score
GCCAGCTA	-0.139
CGGGTGAA	0.0903
GGCCGGAC	-0.132
ATCCAGGG	-0.22
AGTCCGGG	-0.228
CGTCGCCA	-0.0999
CTGCCTAC	-0.0193
GGACCCAA	-0.283
GCTATTCA	0.0257
TAACCGTA	0.0149
CCATTCCC	-0.296
CGTGAACG	-0.241
CTAGGATA	-0.125
ACGCTATG	0.113
CGTTCACC	-0.00233
AAAACGTA	0.206
ATTGATTG	0.237
GCTTTAAC	0.135
ATAAATTG	0.258
AGTATCTC	-0.00375
AAAACATA	0.243
GACGGATC	-0.0698
AATACGTG	0.176
GACTTTGC	-0.051
AAGAGCTA	0.119

Sequence	PBM E-score
CTTGGCGA	-0.243
AGACCAAC	-0.218
CAAGGATG	-0.0287
GGCTCAAA	0.06
CCAACCTC	-0.0635
ACTCGCCC	-0.324
AAAAATAT	0.309
GCGATCAC	-0.105
TAATTAGA	0.116
AATGCCGG	-0.0561
ACACGTTC	-0.0249
TGACATCA	0.496
GTCAGCAA	0.232
ACCATCGA	-0.0265
AGCCATTA	0.14
AAGAAACC	-0.107
ACGGCCGG	0.0362
TAAGCGAA	0.1
AATCTTGC	0.137
ACATTTGA	0.151
CATAGGCC	-0.248
CTACATAA	-0.0447
GTTGCAAC	0.264
TATAACCA	0.224
CTAAAGTC	-0.293

Sequence	PBM E-score
CCTGGAGC	-0.109
ACTATTAC	0.201
ATGCGCGA	-0.215
TCGATCCA	-0.0945
ACTGGAGA	-0.145
ATCACAAG	0.117
ATGCTTGA	0.0953
ATCAGCAA	-0.0659
AAAGACCC	-0.0843
GCTGAAAA	0.0425
AACACCAC	0.0267
AGTAGTCA	0.144
CGGATCCA	-0.065
GAAGGCTA	-0.0593
CTATGAAC	0.0157
CTCTTTTC	-0.018
CTGAGAAA	0.0114
GACGTGTA	0.214
AACACGAA	0.0914
CTCCCGGA	-0.305
AAGATGCG	-0.0184
AGAGGACT	-0.304
AGGTTTAC	-0.125
ATCCGATA	-0.137
GGGTATCA	-0.179

Sequence	PBM E-score
CACGACAA	0.0719
CTCCCCTC	-0.312
AAGTACAA	0.0914
ACTCTCTG	-0.149
ATTTGTTC	0.332
CGCACGCC	0.00326
GGTCGTAA	0.115
AAGGTGCG	-0.203
CCGGGACA	-0.227
GCTGTACC	-0.205
AGGATTAG	-0.105
GAGACAAC	-0.0788
AAAGCAGT	0.147
ACTCAGAA	0.13
AGGTTAAT	0.0615
CTTATCTC	0.0912
AACGAGGG	-0.235
CAGACCTG	-0.171
GAGTGTCC	-0.00028
AATAACCT	0.011
AGGCATAC	-0.0324
ACATTCAA	-0.0582
AGCTTACC	-0.192
GAGGTGAC	0.407
CCATCATA	0.122

Sequence	PBM E-score
CGGAATGC	-0.0293
ACGTCACG	0.49
AATGGCCC	-0.232
GCTATACC	-0.19
AGCACCTG	-0.159
CGCTCACC	-0.1
ACCTGCCC	-0.19
AATGCCAA	-0.0265
AACGGTCC	-0.263
AAACAAGC	-0.0352
AAGCTACC	-0.0478
TACTCGCA	0.0358
ACACTCAA	0.18
GTTACGGA	0.11
GGCCCGAC	-0.258
AACTCTTA	0.0314
GACATCGA	0.153
CGCACCGC	-0.136
ATCGAGGA	-0.0369
ATGTATTA	0.254
CACCATGG	-0.223
GTAATCTA	0.345
ACGCGCTC	-0.0884
ATCTACAA	0.122
ACATGCGC	0.0396

Sequence	PBM E-score
AAGGGGAC	-0.0979
TGCTATAA	-0.102
AATAAATT	0.282
AAGTGGAC	-0.11
ATAGTGAG	-0.00785
CACATGCA	-0.0423
CCCTGTCG	-0.115
AGCCTAAA	-0.102
ATCAGGTA	0.0812
GTAGATCA	0.106
GAGATAAC	0.0629
GTAAGTAA	0.128
CGAGTAGC	-0.0482
ATACAGAC	0.128
ATAGAGAC	0.00551
AGCTTCAC	-0.25
CTTATTCC	-0.0469
CGGCGACC	-0.0671
TACCTGGA	-0.187
AAAAGATC	0.00127
TGAAGTAA	0.16
ACTTAACC	0.124
GAGCTCCC	-0.36
ATCAGGAG	-0.0553
AGCGCCAC	-0.0603

Sequence	PBM E-score
GACAACGA	-0.0361
ATCAATAC	0.0933
GAGATGCC	0.0238
CCCTTATC	0.0093
TAGGTCGA	-0.084
CTGTGAAC	-0.069
CTTTAGCC	0.117
GGCCCCTA	-0.342
CATCGTGA	0.0617
ATAGTGGA	-0.0686
CGTTCGTC	0.18
GTAGGCTA	0.00685
ATACAACA	0.186
ACAAACGG	0.201
AGAGCTCC	-0.365
ACTCACTA	0.162
ATCGGCAG	-0.158
AAGTGGGT	-0.0285
AAGCGCGT	0.0416
AAGAGTAG	0.0205
ACATTCGC	-0.0173
ACCAACGT	0.0563
CGTGAAGC	-0.0732
TGAGGAAA	0.125
ACGGCTAC	0.167

Sequence	PBM E-score
CAGTTAAG	0.153
CCGGACCC	-0.318
AAGGACGC	-0.149
ATGAAAAA	0.25
AGTTTCAG	0.0546
ACCGGTCT	-0.22
CGCAAAGA	0.104
ATTAATGC	0.139
GAATGCAC	0.0666
ACCCGCTC	-0.266
ATGGATCG	0.0412
GCTGCTCA	-0.139
CACAAGAG	-0.0233
AGAACTAC	0.0296
CACCGCTG	-0.0957
GAAGCCAA	-0.0393
ATGGCTCG	-0.0199
CAGCATGC	-0.0959
CGACAAGA	0.0909
CTCACTCA	0.0247
TGCGCGCA	0.142
ATCCTTCC	-0.297
ATAGGGAA	-0.117
GGCACTCA	-0.248
AGGTCACG	0.0374

Sequence	PBM E-score
GGTAGGAC	-0.265
ATATTAGC	0.142
ATAGCGGC	-0.0163
CCTAGCAC	-0.296
AATGACAC	0.273
CATAGAGA	0.0623
CCGGACAG	-0.0759
ACCACCGC	-0.347
CAATTACA	0.223
AATGGCAA	0.183
AGACGCTA	-0.202
CCCGCCTC	-0.196
CCCGGAAG	-0.221
CTGTACAC	0.0113
ACGTTCAC	0.091
ACTATAGC	-0.291
CGGAAATC	-0.0948
CTCGACGC	0.146
TAAGATTA	0.159
CCAGATGG	-0.162
CCATCTAC	-0.121
TACAATGA	0.143
GGTGAGGA	-0.00526
CTAAATAA	0.231
GCAATCAA	0.169

Sequence	PBM E-score
CCGCGACA	0.0216
ATTACCCC	-0.0251
TAGCAAGA	0.066
GCTACTAC	0.104
ATTTGGAC	0.103
CGGTCATA	0.298
AAGCACGT	0.0741
TCGGACGA	0.0361
ACTAAAAT	0.248
AGCAACTG	-0.0634
CTATTCCA	0.181
AATCCAGA	0.0903
ATGCGGCG	0.343
GTCCTGAA	-0.0565
AACTCGTG	0.0229
AAACTGTT	0.0724
CTGGACAC	-0.306
AACATTCT	0.184
CAGAAGAA	0.135
AGCCCGGG	-0.36
AATCGCCC	-0.138
AGGATCAT	-0.0669
GCGGGGTA	-0.201
CCACTGAC	0.00175
CCGTTTCG	0.0771

Sequence	PBM E-score
AATTCGAC	-0.264
ACAGTTCG	-0.0171
CGCACCGA	0.00906
GATATCAC	0.236
CGTTGCAC	-0.0236
TGGACAAA	-0.0229
CACTGTCG	-0.116
GGCCAGCC	-0.253
ACAAGCTC	-0.261
CGAAGGAC	-0.223
ATTTATTA	0.357
TTTGAAAA	0.259
AATCAGAA	0.00689
ATCTCCAT	-0.107
AATTTGAG	0.179
GGACTGAC	-0.0762
ACCCCCCG	-0.351
ACTATTTC	0.0977
GACTAGTA	0.0969
AATGACGC	0.453
GACGCGCA	0.0636
ATCGAGAG	-0.0727
AGTGAGCA	-0.0752
CGACGCGC	0.0928
TATCATAA	0.144

Sequence	PBM E-score
CGAACCGC	0.101
AGGGGTAA	-0.166
AACACCGG	0.0585
CGAGGCGC	0.188
AACCGGGG	-0.115
CCTGTAGC	-0.267
CTCTGGGC	-0.17
GCCTTAAC	-0.173
CTTGTGCA	-0.0617
AGAGCGTA	-0.107
TACGATGA	0.291
ACCCTACC	-0.103
AGTATTGA	0.176
CCTCTGCG	-0.285
AAACGACA	0.118
ACGTAAAG	0.306
GATCAGGA	-0.172
GATAGATA	0.115
AAGATGGT	-0.0768
ACAGGACT	-0.107
CGAATTGA	0.108
GATTGCAC	0.0615
CTCCACCC	-0.331
TGTGAAAA	0.167
ACATATAG	0.123

Sequence	PBM E-score
AAGGAACT	-0.0892
TCCTTCAA	-0.037
ACGATGTG	0.13
TCCATCCA	-0.0853
AGCTACGA	-0.12
CATTCTCC	0.128
AAGGCGGG	-0.183
CTCAGCCC	-0.377
GTCGCTCA	-0.138
CCTAGTCC	-0.337
TCTGTACA	0.0521
AGATCTGA	-0.0662
CGATTTTC	0.276
ACGCGTCG	0.0914
CGCGTGTA	-0.0143
AATACACC	0.138
CGACCTAG	-0.107
GATCATAC	0.139
AGGAATGG	-0.2
AGACTTCC	-0.282
CTTTGTCA	0.13
ACCGCAAG	-0.0198
GCTTGAAA	0.0965
GCGCTTCC	-0.126
ATAACGTC	0.38

Sequence	PBM E-score
GGCAGACA	-0.174
GCCCCAAA	-0.191
TCGCTTCA	-0.179
GTCAGGGA	-0.115
AGCATAAC	-0.0272
GCTCGGTA	-0.218
TACGGATA	0.114
ATTGACTC	0.0413
ATGTTCGA	0.0764
CAAAATAA	0.238
ACGTCCTC	-0.0815
AGATACGC	0.0494
CACATATC	0.0869
ATCTGAGA	-0.0864
ATTCTACC	0.0596
GATGACCA	0.101
ATACAAGC	0.0788
CGACTGGC	-0.132
ACTTTATA	0.264
